# Experimental data reported in the supplement of paper PMC10037445.
# The full ranking holds about 2,900 compounds; the median of “IRF Lucia reporter activity, fold change vs agonist alone” is about 0.9, and the highest 2% start at about 2.8. The list shows a part of the results.
# How the values were obtained:
# RAW-Dual [1] = assay: IRF Lucia reporter activity, fold change vs agonist alone; cytotoxicity flag (confluency mask): not cytotoxic; higher = enhanced IRF activity
# Procedure, shortened: (§1)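 Reporter activity is given as fold change relative to agonist-alone wells. To measure it, 50 nL of library stock was pin-tooled onto RAW-Dual macrophages (50,000 cells/well, DMEM, 384-well plates), a PRR agonist followed 1 h later, and cells stayed at 37 °C, 5% CO2. Twenty hours on, supernatant was assayed for IRF (QuantiLuc luminescence) and NF-κB (QuantiBlue, 620 nm absorbance), and wells under 70% of agonist-control IncuCyte confluency in both mask sets were marked cytotoxic.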
# RAW-Dual [2] = assay: IRF Lucia reporter activity, fold change vs agonist alone; higher = enhanced IRF activity; details: library stock concentration (final ~1000-fold dilution): 10 mM, agonist: MPLA (TLR4) […]
# Procedure, shortened: as §1
# RAW-Dual [3] = assay: IRF Lucia reporter activity, fold change vs agonist alone; cytotoxicity flag (confluency mask): cytotoxic (confluency <70% of control); higher = enhanced IRF activity
# Procedure, shortened: as §1
# [4] = agonist: 3'3'-cGAMP (STING) 10 ug/mL
# [5] = cytotoxicity flag (confluency mask): not cytotoxic
# [6] = cytotoxicity flag (confluency mask): cytotoxic (confluency <70% of control)
compound,measurement,setting,value
CCC(C)C(NC(=O)C(C(C)CC)N(C)C(C)=O)C(=O)NC(=O)C(NC(CC(C)C)C(=O)C1(C)CO1)C(C)O (stereo unspecified) (library stock concentration (final ~1000-fold dilution): 10 mM),IRF Lucia reporter activity,RAW-Dual [1]; [4],1.55
same,IRF Lucia reporter activity,RAW-Dual [1]; agonist: LPS (TLR4) 0.1 ug/mL,4.46
CCC(C)C(NC(=O)C(C(C)CC)N(C)C(C)=O)C(=O)NC(=O)C(NC(CC(C)C)C(=O)C1(C)CO1)C(C)O (stereo unspecified),IRF Lucia reporter activity,RAW-Dual [2]; [5],2.09
O=C(Oc1ccc([N+](=O)[O-])cc1)N1CCC(C(O)(c2ccc3c(c2)OCO3)c2ccc3c(c2)OCO3)CC1,IRF Lucia reporter activity,RAW-Dual [2]; [5],1.04
O=C(Oc1ccc([N+](=O)[O-])cc1)N1CCC(C(O)(c2ccc3c(c2)OCO3)c2ccc3c(c2)OCO3)CC1 (library stock concentration (final ~1000-fold dilution): 10 mM),IRF Lucia reporter activity,RAW-Dual [1]; [4],1.02
same,IRF Lucia reporter activity,RAW-Dual [1]; agonist: LPS (TLR4) 0.1 ug/mL,1.11
CC1CCC2C(C)C3CCC4C(CC5C4CC(O)C4CC(O)CCC45C)C3CN2C1 (stereo unspecified) (library stock concentration (final ~1000-fold dilution): 10 mM),IRF Lucia reporter activity,RAW-Dual [1]; [4],0.906
same,IRF Lucia reporter activity,RAW-Dual [1]; agonist: LPS (TLR4) 0.1 ug/mL,1.22
CN1CCc2cc3c(cc2C1C1OC(=O)c2c1ccc1c2OCO1)OCO3 (stereo unspecified) (library stock concentration (final ~1000-fold dilution): 10 mM),IRF Lucia reporter activity,RAW-Dual [1]; [4],1.07
same,IRF Lucia reporter activity,RAW-Dual [1]; agonist: LPS (TLR4) 0.1 ug/mL,1.06
CN1CCc2cc3c(cc2C1C1OC(=O)c2c1ccc1c2OCO1)OCO3 (stereo unspecified),IRF Lucia reporter activity,RAW-Dual [2]; [5],1.15
COc1cc2c(cc1OC)C1CC(=O)C(CC(C)C)CN1CC2 (stereo unspecified) (library stock concentration (final ~1000-fold dilution): 10 mM),IRF Lucia reporter activity,RAW-Dual [1]; [4],1.1
same,IRF Lucia reporter activity,RAW-Dual [1]; agonist: LPS (TLR4) 0.1 ug/mL,0.906
COc1cc2c(cc1OC)C1CC(=O)C(CC(C)C)CN1CC2 (stereo unspecified),IRF Lucia reporter activity,RAW-Dual [2]; [5],0.72
CCc1c2c(nc3ccccc13)-c1cc3c(c(=O)n1C2)COC(=O)C3(O)CC (stereo unspecified) (library stock concentration (final ~1000-fold dilution): 10 mM),IRF Lucia reporter activity,RAW-Dual [3]; [4],0.919
same,IRF Lucia reporter activity,RAW-Dual [3]; agonist: LPS (TLR4) 0.1 ug/mL,0.139
CCc1c2c(nc3ccccc13)-c1cc3c(c(=O)n1C2)COC(=O)C3(O)CC (stereo unspecified),IRF Lucia reporter activity,RAW-Dual [2]; [6],0.987
Cc1sc2c(c1C)C(c1ccc(Cl)cc1)=NC(CC(=O)OC(C)(C)C)c1nnc(C)n1-2 (stereo unspecified),IRF Lucia reporter activity,RAW-Dual [2]; [6],0.122
Cc1sc2c(c1C)C(c1ccc(Cl)cc1)=NC(CC(=O)OC(C)(C)C)c1nnc(C)n1-2 (stereo unspecified) (library stock concentration (final ~1000-fold dilution): 10 mM),IRF Lucia reporter activity,RAW-Dual [3]; [4],0.193
same,IRF Lucia reporter activity,RAW-Dual [3]; agonist: LPS (TLR4) 0.1 ug/mL,0.185
O=S(=O)(F)Cc1ccccc1 (library stock concentration (final ~1000-fold dilution): 10 mM),IRF Lucia reporter activity,RAW-Dual [1]; [4],0.995
same,IRF Lucia reporter activity,RAW-Dual [1]; agonist: LPS (TLR4) 0.1 ug/mL,1.09
O=S(=O)(F)Cc1ccccc1,IRF Lucia reporter activity,RAW-Dual [2]; [5],1.08
Br.COc1ccc2c(c1)C13CCCCC1C(C2)N(C)CC3.O (stereo unspecified),IRF Lucia reporter activity,RAW-Dual [2]; [5],1.03
Br.COc1ccc2c(c1)C13CCCCC1C(C2)N(C)CC3.O (stereo unspecified) (library stock concentration (final ~1000-fold dilution): 10 mM),IRF Lucia reporter activity,RAW-Dual [1]; [4],0.827
same,IRF Lucia reporter activity,RAW-Dual [1]; agonist: LPS (TLR4) 0.1 ug/mL,1.18
CCNCC.O=C(O)Cc1ccccc1Nc1c(Cl)cccc1Cl,IRF Lucia reporter activity,RAW-Dual [2]; [5],0.892
CCNCC.O=C(O)Cc1ccccc1Nc1c(Cl)cccc1Cl (library stock concentration (final ~1000-fold dilution): 10 mM),IRF Lucia reporter activity,RAW-Dual [1]; [4],0.91
same,IRF Lucia reporter activity,RAW-Dual [1]; agonist: LPS (TLR4) 0.1 ug/mL,1.04
COc1cc(-n2c(S)nc3ccccc3c2=O)c(Cl)cc1Cl (library stock concentration (final ~1000-fold dilution): 10 mM),IRF Lucia reporter activity,RAW-Dual [1]; [4],0.865
same,IRF Lucia reporter activity,RAW-Dual [1]; agonist: LPS (TLR4) 0.1 ug/mL,0.58
COc1cc(-n2c(S)nc3ccccc3c2=O)c(Cl)cc1Cl,IRF Lucia reporter activity,RAW-Dual [2]; [5],1.11
Cc1cc(C(=O)CN2CCCC2)c(C)n1-c1ccc(F)cc1,IRF Lucia reporter activity,RAW-Dual [2]; [5],1.2
Cc1cc(C(=O)CN2CCCC2)c(C)n1-c1ccc(F)cc1 (library stock concentration (final ~1000-fold dilution): 10 mM),IRF Lucia reporter activity,RAW-Dual [1]; [4],0.913
same,IRF Lucia reporter activity,RAW-Dual [1]; agonist: LPS (TLR4) 0.1 ug/mL,1.48
CC1CCC/C=C/C2CC(O)CC2C(O)/C=C/C(=O)O1 (stereo unspecified),IRF Lucia reporter activity,RAW-Dual [2]; [5],0.153
CC1CCC/C=C/C2CC(O)CC2C(O)/C=C/C(=O)O1 (stereo unspecified) (library stock concentration (final ~1000-fold dilution): 10 mM),IRF Lucia reporter activity,RAW-Dual [1]; [4],0.0117
same,IRF Lucia reporter activity,RAW-Dual [1]; agonist: LPS (TLR4) 0.1 ug/mL,0.236
CC(C)c1ccc2c(c1O)CCC1C3=C(CCC21C)C(=O)OC3 (stereo unspecified) (library stock concentration (final ~1000-fold dilution): 10 mM),IRF Lucia reporter activity,RAW-Dual [1]; [4],0.917
same,IRF Lucia reporter activity,RAW-Dual [1]; agonist: LPS (TLR4) 0.1 ug/mL,1.25
COc1ccc2c(c1O)-c1c(OC)c(OC)cc3c1C(C2)N(C)CC3 (stereo unspecified) (library stock concentration (final ~1000-fold dilution): 10 mM),IRF Lucia reporter activity,RAW-Dual [1]; [4],1
same,IRF Lucia reporter activity,RAW-Dual [1]; agonist: LPS (TLR4) 0.1 ug/mL,0.907
COc1ccc(C=O)cc1O (library stock concentration (final ~1000-fold dilution): 10 mM),IRF Lucia reporter activity,RAW-Dual [1]; [4],1.08
same,IRF Lucia reporter activity,RAW-Dual [1]; agonist: LPS (TLR4) 0.1 ug/mL,1.24
COc1ccc(C=O)cc1O,IRF Lucia reporter activity,RAW-Dual [2]; [5],1.06
CCNC1(c2cccs2)CCCCC1=O.Cl (stereo unspecified) (library stock concentration (final ~1000-fold dilution): 10 mM),IRF Lucia reporter activity,RAW-Dual [1]; [4],0.511
same,IRF Lucia reporter activity,RAW-Dual [1]; agonist: LPS (TLR4) 0.1 ug/mL,1.38
CCNC1(c2cccs2)CCCCC1=O.Cl (stereo unspecified),IRF Lucia reporter activity,RAW-Dual [2]; [5],1.05
CC(=O)OC1CC2CCC3C(CCC4(C)C3CC([N+]3(C)CCCCC3)C4OC(C)=O)C2(C)CC1[N+]1(C)CCCCC1 (stereo unspecified),IRF Lucia reporter activity,RAW-Dual [2]; [5],0.995
CC(=O)OC1CC2CCC3C(CCC4(C)C3CC([N+]3(C)CCCCC3)C4OC(C)=O)C2(C)CC1[N+]1(C)CCCCC1 (stereo unspecified) (library stock concentration (final ~1000-fold dilution): 10 mM),IRF Lucia reporter activity,RAW-Dual [1]; [4],1.02
same,IRF Lucia reporter activity,RAW-Dual [1]; agonist: LPS (TLR4) 0.1 ug/mL,1.08
